Measurements from the supplement of paper PMC11125491.
± gives the standard deviation of the averaged measurements. Growth of baker's yeast expressing single-residue variants of Pneumocystis jirovecii dihydrofolate reductase in 8.8 or 44 µM methotrexate (about 75% and 90% inhibition of the wild type). Selection coefficient per generation; 0 = like wild type, above 0 = less sensitive, below 0 = more sensitive or loss of function. No active / inactive call per row; the paper calls resistant above 0.220 (8.8 µM) or 0.243 (44 µM) together with a significance test. At 44 µM about 15% of codons end with one read or none, so the lowest values are floors (replicate rank correlation 0.74; 0.94 at 8.8 µM).

B1: UniProt A0EPZ9; numbered along this chain (parent)
chain: MDWQKSLTLIVALTLSRGIGLKNDLPWKLKSDMMFFSRVTSGLLVTRSTGQMNVVLMGRKTWESLPAHSRPLKNRINVVISRQEVLDLGGGAYHARSLDDALALLSQIYDSTSKIQLNRVFVIGGGELCKAAMEHSRLNRIIATVIHNEVDCDVFFPIDFRSSQSCLPWRKQDHSVLEAWVGSKVPQGKINENGFIYEFEMWIRDI

Variants of: B1
Test: selection coefficient against synonymous wild-type codons (log2 per generation); higher = faster growth than wild type
Settings: with Saccharomyces cerevisiae carrying the variant on a plasmid
Procedure: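 Pooled growth of yeast carrying single-residue variants of P. jirovecii dihydrofolate reductase (own DFR1 gene intact), two passages at 30 °C, three cultures, sequenced before and after. Codons with under 15 starting reads are left out; codons of one change are averaged.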

Variant | selection coefficient against synonymous wild-type codons (log2) (methotrexate 8.8 µM) | selection coefficient against synonymous wild-type codons (log2) (methotrexate 44 µM)
MDWQKSLTLIVALTLSRGIGLKNDLPWKLKSDMMFFSRVTSGLLVTRATGQMNVVLMGRKTWESLPAHSRPLKNRINVVISRQEVLDLGGGAYHARSLDDALALLSQIYDSTSKIQLNRVFVIGGGELCKAAMEHSRLNRIIATVIHNEVDCDVFFPIDFRSSQSCLPWRKQDHSVLEAWVGSKVPQGKINENGFIYEFEMWIRDI [S48A] | -0.00902 ± 0.045 | -0.0393 ± 0.085
MDWQKSLTLIVALTLSRGIGLKNDLPWKLKSDMMFFSRVTSGLLVTRSTGQMNVVLMGRKTWESLPAHSRPLKNRINVVISRQEVLDLGGGAYHARSLDDALALLSQIYDSTSKIQLNRVFVIGGGELCKAAMEHSRLNRIIATVIHNEVDCDVFFPIDFRSSQSCLPFRKQDHSVLEAWVGSKVPQGKINENGFIYEFEMWIRDI [W169F] | -0.00839 ± 0.06 | -0.102 ± 0.032
MDWQKSLTLIVALTLSRGIGLKNDLPWKLKSDMMFFSRVTSGLLVTRSTGQMNVVLMGRKTWESLPAHSRPLKNRINVVISRQEVLDLGEGAYHARSLDDALALLSQIYDSTSKIQLNRVFVIGGGELCKAAMEHSRLNRIIATVIHNEVDCDVFFPIDFRSSQSCLPWRKQDHSVLEAWVGSKVPQGKINENGFIYEFEMWIRDI [G90E] | 0.0998 ± 0.0053 | 0.158 ± 0.0046
MDWQKSLTLIVALTLSRGIGLKNDLPWKLKSDMMFFSRVTSGLLVTRSTGQMNVVLMGRKTWESLPAHSRPCKNRINVVISRQEVLDLGGGAYHARSLDDALALLSQIYDSTSKIQLNRVFVIGGGELCKAAMEHSRLNRIIATVIHNEVDCDVFFPIDFRSSQSCLPWRKQDHSVLEAWVGSKVPQGKINENGFIYEFEMWIRDI [L72C] | 0.26 ± 0.027 | 0.318 ± 0.064
MDWQKSLTLIVALTLSRGIGLKNDLPWKLKSDMMFFSRVTSGLLVTRSTGQMNVVLMGRKTWESLPAHSRPLKNRINVVISRQEVLDLGGGAYHARSLDDALALLSQIYDSTSKIQLNRVFVIGGGELCKAAMEHSRLNRIIATVIHNEVDCDVFFPIDFRSSQSCLPWRKQDHSVLEKWVGSKVPQGKINENGFIYEFEMWIRDI [A179K] | 0.128 ± 0.018 | 0.0285 ± 0.013
MDWQKSLTLIVALTLSRGIGLKNDLPWKLKSDMMFFSRVTSGLLVTRSTGQMNVVLMGRKTWESLPAHSRPLKNRINVVISRQEVLDLGGGAYHARSLDDALALLSQIYDSTSKIQLNRVFPIGGGELCKAAMEHSRLNRIIATVIHNEVDCDVFFPIDFRSSQSCLPWRKQDHSVLEAWVGSKVPQGKINENGFIYEFEMWIRDI [V122P] | -0.692 ± 0.14 | -0.245 ± 0.048
MDWQKSLTLIVALTLSRGIGLKNDLPWKLKSDMPFFSRVTSGLLVTRSTGQMNVVLMGRKTWESLPAHSRPLKNRINVVISRQEVLDLGGGAYHARSLDDALALLSQIYDSTSKIQLNRVFVIGGGELCKAAMEHSRLNRIIATVIHNEVDCDVFFPIDFRSSQSCLPWRKQDHSVLEAWVGSKVPQGKINENGFIYEFEMWIRDI [M34P] | 0.575 ± 0.027 | 0.66 ± 0.036
MDWQKSLTLIVALTLSRGIGLKNDLPWKLKSDMMFFSRVTSGLLVTRSTGQMNVVLMGRKTWESLPAHSRPLKNRINVVISRQEVLDLGGGAYHARSLDDALALLSQIYDSTSKIQLNRVFVIGGGELCKAAMEHSRLNRIIATVIHNEVDCDVFFVIDFRSSQSCLPWRKQDHSVLEAWVGSKVPQGKINENGFIYEFEMWIRDI [P157V] | -0.641 ± 0.16 | -0.35 ± 0.094
MDWQKSLTLIVALTLSRSIGLKNDLPWKLKSDMMFFSRVTSGLLVTRSTGQMNVVLMGRKTWESLPAHSRPLKNRINVVISRQEVLDLGGGAYHARSLDDALALLSQIYDSTSKIQLNRVFVIGGGELCKAAMEHSRLNRIIATVIHNEVDCDVFFPIDFRSSQSCLPWRKQDHSVLEAWVGSKVPQGKINENGFIYEFEMWIRDI [G18S] | -0.0591 ± 0.054 | -0.0584 ± 0.1
MDWQKSLTLIVALTLSRGIGLKNDLPWKLKSDMMFFSRVTSGLLVTRSTGQMNVVLMGRKTWESLPAHSRPLKNRINVVISRQEVLDLGGGAYHARSLDDALALLSQIYDSTSKIQLNRVFVIGFGELCKAAMEHSRLNRIIATVIHNEVDCDVFFPIDFRSSQSCLPWRKQDHSVLEAWVGSKVPQGKINENGFIYEFEMWIRDI [G125F] | -0.895 ± 0.031 | -0.389 ± 0.043
MDWQKSLTLIVALTLSRGIGLKNDLPWKLKSDMMFFSRVTSGLLVTRSTGQMNVVLMGRKTWESLPAHSRPLKNRILVVISRQEVLDLGGGAYHARSLDDALALLSQIYDSTSKIQLNRVFVIGGGELCKAAMEHSRLNRIIATVIHNEVDCDVFFPIDFRSSQSCLPWRKQDHSVLEAWVGSKVPQGKINENGFIYEFEMWIRDI [N77L] | 0.227 ± 0.063 | 0.527 ± 0.13
MDWQKSLTLIVALTLSRGIGLKNDLPWKLKSDMMFFSRVTSGLLVTRSTGQMNVVLMGRKTWESLPAHSRPLKNRINVVISRQEVLDLGGGAYHARSLDDALALLSQIYDSTSKIQLNRVFVIGGGELCKAAMEHSRLNRIIATVIHNEVDCDVFFPIDIRSSQSCLPWRKQDHSVLEAWVGSKVPQGKINENGFIYEFEMWIRDI [F160I] | 0.106 ± 0.037 | 0.0205 ± 0.086
MDWQKSLTLIVALTLSRGIGLKNDLPWKLKSDMMFFSRVTSGLLVTRSTGQMNVVLMGRKTWESLPAHSRPLKNRINVVISRQEVLDLGGGAYHARSLDDALALLSQIYDSTSKIQLIRVFVIGGGELCKAAMEHSRLNRIIATVIHNEVDCDVFFPIDFRSSQSCLPWRKQDHSVLEAWVGSKVPQGKINENGFIYEFEMWIRDI [N118I] | -0.185 ± 0.079 | -0.146 ± 0.18
MDWQKSLTLIVALTLSRGIGLKNDLPWKLKSDMMFFSRVTSGLLVTRSTGQMNVVLMGRKTWESLPAHSRPLKNRINVVISRQEVLDLGGGAYHARSLDDALALLSQIYDSTSKIQLNRVFVIGGGELCKAAMEHSRLNRIIETVIHNEVDCDVFFPIDFRSSQSCLPWRKQDHSVLEAWVGSKVPQGKINENGFIYEFEMWIRDI [A143E] | -0.492 ± 0.086 | -0.282 ± 0.062
MDWQKSLTLIVALTLSRGIGLKNDLPWKLKSDMMFFSRVTSGLLVTRSTGQMNVVLMGRKTWESLPAHSRPLKNRINVVISRQEVLDLGGGAYHARSLDDALALLSQIYDSTSKIQLNLVFVIGGGELCKAAMEHSRLNRIIATVIHNEVDCDVFFPIDFRSSQSCLPWRKQDHSVLEAWVGSKVPQGKINENGFIYEFEMWIRDI [R119L] | -0.381 ± 0.11 | -0.34 ± 0.1
